# Reference: publication PMC4336329 (PLoS ONE, 2015)
# The whole screen tested about 310,000 compounds, of which about 14,000 (4.5%) showed an effect of 50% or more. The effect is printed as a negative number. The list shows a part of the results.
# Biological target: human ether-à-go-go-related gene (hERG) potassium channel (human, UniProt Q12809)
# Assay: primary screen, population patch clamp on CHO cells stably expressing hERG
# 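Note: peak tail current of the secondary pulse compared with the same well before compound.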
# human ether-à-go-go-related gene (hERG) potassium channel, sequence (Q12809 whole entry, looked up): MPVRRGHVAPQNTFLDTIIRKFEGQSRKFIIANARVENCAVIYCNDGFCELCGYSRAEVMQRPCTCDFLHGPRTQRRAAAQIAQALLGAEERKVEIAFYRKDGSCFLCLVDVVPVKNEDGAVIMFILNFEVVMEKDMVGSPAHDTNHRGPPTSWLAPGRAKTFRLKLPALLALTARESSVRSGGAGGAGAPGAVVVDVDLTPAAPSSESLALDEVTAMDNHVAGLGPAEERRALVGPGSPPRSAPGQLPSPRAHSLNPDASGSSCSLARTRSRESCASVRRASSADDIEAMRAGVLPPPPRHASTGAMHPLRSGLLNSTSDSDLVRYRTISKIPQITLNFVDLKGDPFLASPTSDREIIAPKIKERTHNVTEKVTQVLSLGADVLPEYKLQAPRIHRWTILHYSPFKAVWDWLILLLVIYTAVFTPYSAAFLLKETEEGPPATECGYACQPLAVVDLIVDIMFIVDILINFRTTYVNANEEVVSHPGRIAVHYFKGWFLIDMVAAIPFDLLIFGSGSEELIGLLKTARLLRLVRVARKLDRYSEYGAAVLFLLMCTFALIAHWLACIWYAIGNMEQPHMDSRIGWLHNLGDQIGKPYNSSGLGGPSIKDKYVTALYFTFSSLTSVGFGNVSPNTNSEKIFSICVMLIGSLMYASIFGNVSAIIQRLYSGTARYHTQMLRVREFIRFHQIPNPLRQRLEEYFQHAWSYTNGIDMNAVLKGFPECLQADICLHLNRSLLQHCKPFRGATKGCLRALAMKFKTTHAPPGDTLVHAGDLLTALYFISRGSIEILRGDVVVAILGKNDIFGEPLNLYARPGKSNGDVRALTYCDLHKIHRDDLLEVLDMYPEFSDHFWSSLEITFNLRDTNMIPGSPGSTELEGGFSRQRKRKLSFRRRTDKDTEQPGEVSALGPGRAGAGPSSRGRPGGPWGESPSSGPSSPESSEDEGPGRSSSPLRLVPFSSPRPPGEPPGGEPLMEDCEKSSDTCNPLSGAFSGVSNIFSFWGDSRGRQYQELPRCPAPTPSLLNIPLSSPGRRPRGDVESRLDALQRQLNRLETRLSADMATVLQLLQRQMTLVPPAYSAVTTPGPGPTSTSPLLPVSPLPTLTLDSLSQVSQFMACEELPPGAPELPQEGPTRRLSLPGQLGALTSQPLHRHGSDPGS
row,SMILES,"hERG current change (%, negative = inhibition) at 10uM"
1,CCOc1ccc(CNC(=O)Cn2ccc3cc(S(=O)(=O)N4CCCCCC4)ccc32)cc1,7.49%
2,CC(C)CC(=O)NC1(C(F)(F)F)C(=O)Nc2c1c(=O)[nH]c(=O)n2Cc1ccco1 (stereo not drawn),18.2%
3,Cc1c(C=O)c(=O)n(-c2ccccc2)n1C,18.5%
4,CCOc1cc(CNCC(C)C)cc(Cl)c1OCc1ccccc1,-14.4%
5,C1CN(CCN2CCOCC2)CCN1,21%
6,Cc1ccc(C(=O)c2c3ccc([N+](=O)[O-])cc3[n+]([O-])n2CCC[NH3+])cc1.O=C([O-])C(F)(F)F,-65.4%
7,O=C(CCCCCn1c(=O)[nH]c2ccccc2c1=O)NCCc1c[nH]c2ccccc12,-12.6%
8,COC(=O)c1cc(NC(=O)c2ccc(Cn3cc(Cl)cn3)o2)cc(C(=O)OC)c1,16.6%
9,COC(=O)C1=C(c2ccccc2OCc2ccccc2)C[C@@H]2CC[C@H]1N2C(=O)NCc1ccccc1,-21%
10,COc1ccc(NS(=O)(=O)c2ccc3[nH]c(=O)[nH]c3c2)cc1OC,16.3%
11,Cc1cc(N2C(=O)C3C4c5ccccc5C(c5ccccc54)C3C2=O)no1 (stereo not drawn),-10.5%
12,COC(=O)C1=C(c2ccc(F)cc2OCc2ccccc2)C[C@@H]2CC[C@H]1N2C(=O)NCc1ccc(C(C)(C)C)cc1,10.7%
13,COc1ccccc1NC(=O)CSc1nnc(Cc2cc(=O)[nH]c(=O)[nH]2)n1-c1ccccc1,-2.56%
14,Cc1ccc(C(=O)NCCCNC(=O)c2ccccn2)cc1,5.5%
15,COc1cccc(/C=N/NC(=O)CNC(=O)CCc2ccccc2)c1O,21.8%
16,CCCN(CCC)S(=O)(=O)c1ccc(Cl)c([N+](=O)[O-])c1,-4.02%
17,COc1ccc(C(CNC(=O)c2ccc(N3CCCC3=O)cc2)N2CCCC2)cc1 (stereo not drawn),-2.38%
18,COc1ccc(CCNS(=O)(=O)c2cc(C(=O)O)c(Cl)cc2Cl)cc1,10.5%
19,CC1CCCCN1CC(O)COCc1ccccc1.Cl (stereo not drawn),5.66%
20,O=C(O/N=C/c1ccc2c(c1)OCO2)c1ccccc1Cl,1.16%
21,CCCNC(=O)c1ccc(COc2cccc3ccccc23)o1,-7.19%
22,COc1ccccc1CN1CC(C(=O)NCCn2nc(C)cc2C)CCC1=O (stereo not drawn),8.76%
23,Fc1ccccc1N=C1Nc2cccc3cccc1c23,-1.31%
24,CCOC(=O)Cc1csc(NC(=O)Cc2ccccc2)n1,1.37%
25,COc1ccc(C(=O)N/N=C/c2c(C)[nH]c(=O)[nH]c2=O)cc1,7.24%
26,O=C(Nc1nc(-c2ccco2)c(-c2ccco2)s1)c1ccco1,-4.81%
27,CC(=O)Nc1ccc(S(=O)(=O)N=S(C)(C)=O)cc1,13.6%

row,SMILES,"hERG current change (%, negative = inhibition) at 10uM"
1,COc1ccc(OC)c2c1C(=O)c1ccccc1C2=O,-5.81%
2,COc1ccc(-c2noc(CSc3nc(N)c(-c4ccccc4)c(=O)[nH]3)n2)cc1,-2%
3,CCC(C)/C(C)=N/NC(=O)CSc1nc2ccccc2[nH]1 (stereo not drawn),2.26%
4,Cc1ccc(C(=O)N(Cc2nc(-c3ccc(C)cc3)no2)C(C)C)cc1,-5.71%
5,CC(C)(C)C1=CC(=O)C(N2CCOCC2)=CC1=O,-0.993%
6,CCc1ccc(OCC(=O)N/N=C/c2cc([N+](=O)[O-])ccc2N2CCCCCC2)cc1,-11%
7,COc1ccc2cc(C(c3nnnn3CCc3ccccc3)N3CCC(O)CC3)c(=O)[nH]c2c1 (stereo not drawn),-8.63%
8,CCOC(=O)CN1C(=O)S/C(=C/c2ccc(OC)c([N+](=O)[O-])c2)C1=O,0.523%
9,COc1cccc(CN2CCNC(=O)C2CC(=O)N2CCCCO2)c1OC (stereo not drawn),-3.91%
10,COc1ccc(/C=C2/SC(=S)N(CCCC(=O)Nc3ccccc3C(=O)O)C2=O)cc1,-36.9%
11,COc1ccc(S(=O)(=O)NN(C)C)cc1N(C)S(=O)(=O)c1ccc(Cl)cc1,-8.45%
12,CCOc1ccc(C(=O)NC(C(=O)NCC2CCCO2)C(C)C)cc1 (stereo not drawn),1.31%
13,COc1cc(-c2[nH]ncc2CN(C)Cc2cc(C)[nH]n2)cc(OC)c1OC,-3.37%
14,O=C(C1CCC(Cn2c(=O)[nH]c3ccccc3c2=O)CC1)N1CCN(c2ccccc2)CC1 (stereo not drawn),6.47%
15,COc1ccc(C(C)=O)cc1COc1ccc([N+](=O)[O-])c(C)c1,-6.4%
16,O=C(COC(=O)/C=C/c1ccc(OC(F)F)cc1)Nc1cccc(S(=O)(=O)N2CCCC2)c1,-20.1%
17,CN(CC(=O)Nc1cccc(F)c1)C(=O)C1CC(=O)N(Cc2ccco2)C1 (stereo not drawn),-8%
18,CC(C)(OC(=O)c1ccc(C(F)(F)F)cc1)c1cc2ccccc2c(=O)o1,14.6%
19,COc1cccc(C(C(=O)NC(C)(C)C)N(Cc2ccc(F)cc2)C(=O)CCC(=O)Nc2cc(C)on2)c1OC (stereo not drawn),5.43%
20,C=C(C(=O)Oc1ccccc1C(C)(C)C)c1ccccc1,3.75%
21,CCOc1ccc(-c2nnc(SCC(=O)Nc3ccc4c(c3)c3ccccc3n4CC)n2N)cc1,27.9%
22,N#Cc1ccc(C(=O)NC2=NCCS2)cc1,23.4%
23,COc1ccccc1NC(=O)c1ccc(NC(=O)Cc2n[nH]c(=O)c3ccccc23)cc1,-26.7%
24,CCCS(=O)(=O)NCc1cn2cccc(C)c2n1,7.62%
25,COc1ccc(C(=O)NCC(C)NC(=O)c2ccc(OC)c(OC)c2)cc1OC (stereo not drawn),13.8%
26,O=C1CSC(=S)N1/N=C/c1ccc2c(c1)OCCO2,23.9%
27,O=C(C(Cc1ccccc1)N1C(=O)c2ccccc2C1=O)N1CCc2ccccc21 (stereo not drawn),11.1%
